The record followed here is the supplement of paper PMC11880418.

The structures appear in SMILES notation. Where a name gives a salt, the structure may show the parent alone. Some of the results follow. The data scatter; read single values as rough.

Test systems include MKN45; PANC1; SUM159; T84.
Holding throughout (assay): ALDHbr (CSC) cell proportion score relative to DMSO vehicle (ratio to DMSO); breast (SUM159) / gastric (MKN45) / pancreatic (PANC1) / colon cancer lines; ALDHbr cells have high ALDH activity and are rich in cancer stem cells (CSC); higher = more CSC (ALDHbr) cells remaining
Holding throughout (conditions): 10 µM; 72 h
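Note: High-content imaging of ALDEFLUOR-stained cells with Hoechst-labelled nuclei in 384-well plates, triplicate wells, scored as Z-score against 0.1% DMSO vehicle, negative meaning fewer ALDHbr cells.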

For the compound `Cc1cnc(C(=O)NCCc2ccc(S(=O)(=O)NC(=O)NC3CCCCC3)cc2)cn1` [Glipizide], the ALDHbr in the experiment on MKN45 amounted to 1.02; with PANC1 it was 1.05; in the experiment with SUM159, 1.15; in the experiment with T84, 1.07.
For `CCCCCN(CCCCC)C(=O)C(CCC(=O)O)NC(=O)c1ccc(Cl)c(Cl)c1` (centres undefined) [Lorglumide sodium salt], in that order: 0.928, 0.913, 1.12 and 1.02.
For `NC1CCN(c2nc3c(cc2F)c(=O)c(C(=O)O)cn3-c2ccc(F)cc2F)C1` (centres undefined) [Tosufloxacin hydrochloride], in that order: 1.52, 0.797, 0.913 and 1.03.
For `NCc1ccc(S(N)(=O)=O)cc1` [Mafenide hydrochloride] the same measures were 1.03, 0.732, 1.2 and 1.02.
`Clc1ccc2c(c1)C(N1CCNCC1)=Nc1ccccc1O2` [Amoxapine]: the ALDHbr with MKN45 was found to be 1.22; in the experiment on PANC1, 0.77; in the experiment with SUM159, 0.607; in the experiment on T84 it was 0.75.
For `Cc1ncc([N+](=O)[O-])n1CC(O)CCl` (centres undefined) [Ornidazole], in that order: 1.11, 0.829, 0.932 and 1.
Consider `CC(=O)NCCCS(=O)(=O)O` [Acamprosate calcium], for which the ALDHbr in the experiment with MKN45 is 0.958; in the experiment on PANC1 it was 1; in the experiment on SUM159, 1.13; in the experiment with T84, 0.926.
Regarding `CC(C)NCC(O)COc1cccc2[nH]ccc12` (centres undefined) [Pindolol], the ALDHbr stood at 0.982 in the experiment on MKN45, 0.87 in the experiment on PANC1, 1.37 in the experiment with SUM159 and 0.885 in the experiment with T84.
On to `C[C@]12CC[C@H]3[C@@H](CCC4=CC(=O)CC[C@@]43C)[C@@H]1CC[C@@H]2C(=O)CO` [Deoxycorticosterone], for which the ALDHbr stood at 0.454 in the experiment on MKN45, 0.764 in the experiment with PANC1, 0.713 in the experiment on SUM159 and 0.839 in the experiment on T84.
For `CCCN(CCC)CCc1cccc2c1CC(=O)N2` [Ropinirole hydrochloride], in that order: 1.06, 0.804, 1.05 and 0.972.
Take `Cn1c([N+](=O)[O-])cnc1COC(N)=O` [Ronidazole]: the ALDHbr with MKN45 turned out to be 1.13; in the experiment with PANC1, 1.11; with SUM159, 1.06; with T84, 0.883.
For `CC(C)(C)NC(=O)[C@@H]1C[C@@H]2CCCC[C@@H]2CN1C[C@@H](O)[C@H](Cc1ccccc1)NC(=O)[C@H](CC(N)=O)NC(=O)c1ccc2ccccc2n1` [Saquinavir mesylate], in that order: 0.431, 0.68, 0.38 and 0.661.
With `CC1(C)O[C@@H]2[C@@H](CO[C@@]3(COS(N)(=O)=O)OC(C)(C)O[C@@H]23)O1` [Topiramate], the ALDHbr in the experiment on MKN45 turned out to be 1.03; with PANC1, 0.912; in the experiment on SUM159, 0.751; with T84 it was 0.85.
For `COC1=CC(=O)C[C@@H](C)[C@]12Oc1c(Cl)c(OC)cc(OC)c1C2=O` [Griseofulvin], in that order: 1.18, 0.733, 1.54 and 1.11.
For `N/C(=N\C(=O)c1nc(Cl)c(N)nc1N)NCc1ccccc1` [Benzamil hydrochloride] the same measures were 1.58, 0.747, 0.924 and 0.685.
For `O=c1[nH]c(=O)n(C2CCCO2)cc1F` (centres undefined) [Tegafur] the same measures were 0.762, 0.969, 0.927 and 0.625.
Take `NC(=O)c1cccnc1` [Nicotinamide]: the ALDHbr came to 0.936 with MKN45, 0.844 with PANC1, 1.03 in the experiment on SUM159 and 0.968 in the experiment on T84.
For `CCC(C)(CN(C)C)OC(=O)c1ccccc1` (centres undefined) [Amyleine hydrochloride], in that order: 0.92, 0.949, 1.43 and 0.941.
For `c1ccc([C@H]2CN3CCSC3=N2)cc1` [Levamisole hydrochloride] the same measures were 0.991, 0.926, 0.921 and 0.93.
For `CN(C)CCOC(c1ccccc1)c1ccccc1` [Diphenhydramine hydrochloride] the same measures were 0.968, 0.939, 0.927 and 1.07.
`NC(=O)c1ncn([C@@H]2O[C@H](CO)[C@@H](O)[C@H]2O)n1` [Ribavirin]: the ALDHbr was found to be 1.54 with MKN45, 0.967 with PANC1, 0.753 with SUM159 and 0.778 in the experiment with T84.
Regarding `CC[C@H]1OC(=O)[C@H](C)[C@@H](O[C@H]2C[C@@](C)(OC)[C@@H](O)[C@H](C)O2)[C@H](C)[C@@H](O[C@@H]2O[C@H](C)C[C@H](N(C)C)[C@H]2O)[C@](C)(O)C[C@@H](C)CN(C)[C@H](C)[C@@H](O)[C@]1(C)O` [Azithromycin], the ALDHbr came out at 0.96 in the experiment with MKN45, 0.635 with PANC1, 1.04 with SUM159 and 1.08 with T84.
For `CC[C@@H]1C(=O)OC[C@@H]1Cc1cncn1C` [Pilocarpine nitrate] the same measures were 1.14, 0.988, 0.97 and 0.99.
For `O=C(NCCO[N+](=O)[O-])c1cccnc1` [Nicorandil] the same measures were 0.835, 0.82, 0.722 and 0.729.
In the case of `C[C@@H]1C[C@H]2[C@@H]3CCC4=CC(=O)C=C[C@]4(C)[C@@]3(Cl)[C@@H](O)C[C@]2(C)[C@@]1(OC(=O)c1ccco1)C(=O)CCl` [Mometasone furoate], the ALDHbr with MKN45 worked out at 0.816; with PANC1, 0.601; in the experiment with SUM159 it was 1.48; in the experiment with T84, 0.586.
For `CCCNCC(O)COc1ccccc1C(=O)CCc1ccccc1` (centres undefined) [Propafenone hydrochloride] the same measures were 1.27, 0.831, 1.55 and 0.894.
